Read counts are not given, so values of variants with three or more changes are uncertain.

The labels stand for the following.
B1: LINE1-full (parent)
chain: UACGUAGGUGGUUUUCCCCUGAUAGUGCUAAGGGGGCCUGGAAGUUUGGACUGGGCAGAGCUCAACACAGCGUGGCAAAGUGGCUGUGGCUAGACUGCCUCUCUGGAUUCCUCGUCACUCAGCAGGGCAUCUCUGAGAGAAAUGCC

In the data set the parent is B1. Put plainly: self-cleavage, relative activity (ratio to wild type); higher = more cleavage; in vitro, sequencing; the parent is a self-cleaving ribozyme.
Take U9A U13C U96C U130A: the self-cleavage is 0.14.
With G8A U87C A136G the figure was 0.28.
For the variant U9A C116U U130A U132C, the self-cleavage amounted to 0.74.
Regarding U9C U13A A69U U73C A92U, the self-cleavage was found to be 0.25.
On to G7A U52A U132C, for which the self-cleavage came to 1.31.
Consider G8U A77U U112C, for which the self-cleavage came to 1.62.
Take G7U G10C A64G U85G A117G: the self-cleavage amounted to 0.
On to U9A U87A A121U, for which the self-cleavage amounted to 0.09.
Regarding U9C A43G A50U A136G, the self-cleavage amounted to 0.
In the case of U9A U14C U132C, the self-cleavage was found to be 0.34.
Take G7U U62C U73C: the self-cleavage worked out at 0.3.
Regarding U9A U143C C146A, the self-cleavage stood at 0.74.
In the case of U9C A57U A79G A92G U102A A140G, the self-cleavage worked out at 0.
Consider G7C U9A U96C U102C, for which the self-cleavage was 0.42.
G7A U96C G97U: the self-cleavage was found to be 0.08.
On to U9C A42G G135A, for which the self-cleavage was determined as 0.53.
Turning to U9A U119A U132C, the self-cleavage came to 0.28.
The same measure for U9C A77U C98G U104C: 0; for U9A U12A A69U A121U: 0.14; for U9C A79G A141G: 1.1.
Regarding G7U U26C A30U U134C A136G, the self-cleavage stood at 1.36.
As for G7U G36A U62C, the self-cleavage stood at 0.03.
With G7A U85C A142G C146A, the self-cleavage worked out at 0.35.
The same measure for U9A C111A A140U: 1.27; for U9C A57G U119A: 1.07.
As for U9A A107G U143C, the self-cleavage is 1.19.
As to U9A A43G G97U U143C, the self-cleavage was 0.05.
Regarding G8A U20A G49A A50G A140U A142U, the self-cleavage worked out at 1.31.
On to U9C C28A A42G A78U, for which the self-cleavage came to 0.99.
Regarding U9C A65G G72A, the self-cleavage amounted to 0.04.
For U9A A67G U100A U134A U143C, the self-cleavage was 0.
On to G7U A22G A30G U112C A141G, for which the self-cleavage worked out at 0.86.
In the case of G8A U47G U73C, the self-cleavage turned out to be 0.
On to U9A U12C A138G, for which the self-cleavage turned out to be 0.87.
The same measure for G7U U47C C61U U81C A121U A136G: 0.04.
For the variant U9C A24G U81A, the self-cleavage is 1.31.
For the variant G7A U46C U62C U115C, the self-cleavage worked out at 0.
The same measure for U9A A24G U132C: 0.47; for U9C A50U U73C U87C: 0; for G8U U45C C98U: 0.18.
For G7U G48U C61U U81C A142G, the self-cleavage turned out to be 0.03.
On to U9C G48A U130C, for which the self-cleavage worked out at 1.64.
On to U9C A92G U96C, for which the self-cleavage worked out at 0.
As to G7U A57G C61U U130C A136C, the self-cleavage amounted to 0.
For the variant U9A U52A A64U C95U, the self-cleavage was determined as 0.13.
As to G8A U12C U14C A50U, the self-cleavage stood at 0.63.
Turning to U9C A77G A136U, the self-cleavage is 2.87.
G7U A24U A57G: the self-cleavage amounted to 0.24.
The same measure for U9A U13A A22G A138G: 0; for G8A U15A G33A U45C U46C U119C: 1.11.
G8A A42G U46A U119C A142G: the self-cleavage was found to be 1.33.
Turning to G7U U85C U100A C116U G126U A129U, the self-cleavage was determined as 0.09.
As to U9A A31U A42U C51U A57G U81C, the self-cleavage turned out to be 0.67.
As to U9A A57G U62C U104C, the self-cleavage came to 0.92.
On to G8A A77U U100C, for which the self-cleavage came to 0.78.
For the variant G8A A43G U119A, the self-cleavage worked out at 1.66.
With U9C G21A U87A U112C, the self-cleavage was 0.1.
In the case of U9C A22U U46C, the self-cleavage was 1.44.
Turning to U9A A31G U119A, the self-cleavage was determined as 0.6.
With U9A G35A A141G A142G, the self-cleavage was determined as 0.78.
As to U9A A65U U91A U96A U132C, the self-cleavage was 0.1.
For G8C U12G A31G U47A U85A U115C, the self-cleavage was found to be 0.29.
U9C A31G G33A C37U A57U: the self-cleavage came out at 0.22.
The same measure for U9A G55A A92G U100A: 0.09.
With G8U U20C U73C U100C A140G, the self-cleavage is 2.63.
U9A U39C U85C U119A: the self-cleavage turned out to be 0.
With U9C G34A A77G U115A, the self-cleavage was determined as 1.98.
For U9A A42U A57G U100G, the self-cleavage stood at 0.48.
The same measure for U9A A140G A141G: 1.13; for U9A U39C U62C A140G: 0.09; for G7U U14C A42G A129U A142U: 1.34.
As for G8A U26A A31U U132A, the self-cleavage was 0.92.
For the variant U9A U15A U39G G54U, the self-cleavage is 0.99.
In the case of U9A C19A A107U, the self-cleavage was 0.88.
In the case of U9C A65G U100A, the self-cleavage came to 0.17.
For the variant U9C A64G U108C U134A, the self-cleavage was 0.81.
On to U9C U13A A50G A92G, for which the self-cleavage came to 0.
Regarding U9C A64U A79G U85C U108C, the self-cleavage amounted to 0.16.
U9C A65G A136G: the self-cleavage is 0.
For U9A A31U A92G, the self-cleavage amounted to 0.69.
For U9A U39C G40A A57C, the self-cleavage was 0.
On to G7C U12C U45G, for which the self-cleavage is 0.96.
U9A U12C G36A G127A A138U: the self-cleavage turned out to be 1.27.
The same measure for U9C A67U U73A: 0.15; for U9A A64U A67G: 0.12; for U9C A42G A64C: 0.96.
The same measure for G7A U46C A142G: 1.51.
In the case of G8A U12C A141G, the self-cleavage was determined as 1.12.
In the case of U9C C37G A64G A136G, the self-cleavage is 0.47.
Regarding U9A U85A A107U, the self-cleavage amounted to 0.25.
In the case of G7U U46C U119C, the self-cleavage is 1.34.
For the variant G7U C123A A136C, the self-cleavage came to 1.7.
As for G7U U102C U130C, the self-cleavage amounted to 0.48.
Turning to U9C A64G G70A A136G A140G, the self-cleavage was 0.34.
Turning to U9A A31G U96C, the self-cleavage is 0.
On to U9C G35A U132C, for which the self-cleavage came to 1.06.
With U9A U46A C51U C76U the figure was 0.64.
Regarding U9A U47C A64U A92G G135A, the self-cleavage is 0.34.
For U9C G72A A78U, the self-cleavage stood at 1.86.
Regarding U9A C16A U119C, the self-cleavage was found to be 0.95.
With U9C G41A U81C A129G A140G the figure was 1.94; with U9A U46C U62C U73A, 0.11.
The same measure for U9A U20C A42U U85C: 0.32; for U9C A64C A65G U130C A140G: 0.
For U9A U29C U81A, the self-cleavage amounted to 1.02.
As for U9C U12G G86U U100C, the self-cleavage turned out to be 0.41.
For G8A U26C A42G U130A, the self-cleavage came out at 0.9.
With U9C G27A U47A A69U the figure was 0.02; with U9C G27A U29C, 1.58.
As to G7U A64G U87C, the self-cleavage came to 0.
As to G7C U15C A77G G93A U115C, the self-cleavage turned out to be 0.
The same measure for U9A U46G A59G A79U: 0.07; for U9A A67C C123A: 0.05; for G7U U62C U102A: 0.
On to U9C A57G A64G, for which the self-cleavage came to 0.
U9C A50G A79G U143A: the self-cleavage was 0.99.
On to G8A A22G A107G A129G, for which the self-cleavage is 0.71.
Regarding U9A A22G U29A G70U, the self-cleavage is 0.22.
With U9C A69G A124U U134C A142G the figure was 0.97; with U9C U13C A117U A141G, 0; with G7C U13A A64U U119A, 0.39.
G8C A24G U29G: the self-cleavage is 0.99.
For G8U U46C A69U, the self-cleavage is 0.02.
With U9C C95A A141G, the self-cleavage came to 0.05.
U9A U46C A94G: the self-cleavage stood at 0.
With U9A U39C A78G A142G the figure was 1.8.
The same measure for U9A U14A U47C: 2.45; for U9A U20C A77G: 0.97.
The same measure for U9A A50G C56U U81A A107G A124U A142C: 0.06; for U9C A31U U130C: 1.28; for U9A A57G A121G: 0.
With U9A U26A A42G, the self-cleavage is 0.63.
Regarding U9A U47C U108G, the self-cleavage was determined as 1.23.
For the variant U9A A67G U130C, the self-cleavage was 0.9.
On to U9C A43G A59G A121U U134C, for which the self-cleavage amounted to 0.
As to U9A C16U A67U, the self-cleavage stood at 0.17.
As for U9C A124G U134C, the self-cleavage was 0.67.
Take U9A A64U U96C A141G: the self-cleavage turned out to be 0.07.
The same measure for U9A A30U U115A A138G A140G: 1.46; for U9A A22G A24U A57G: 0.27.
As for U9C A50G A64G U87A U115A A140G, the self-cleavage came to 2.63.
U9A C19A U39A U115A A129U: the self-cleavage turned out to be 1.2.
As to U9A G21A C28G G83U C123U A142G, the self-cleavage was 0.72.
On to U9C A43G U102A, for which the self-cleavage amounted to 1.39.
In the case of U9A G10A C37U C90U, the self-cleavage turned out to be 0.02.
The same measure for U9A G58U U85C U96A: 0.07; for U9A U23C U115A: 1.19.
For U9A A43U U130A, the self-cleavage worked out at 1.17.
On to U9C A22U A138G, for which the self-cleavage worked out at 1.41.
As to G7C A69U A77G A141G, the self-cleavage is 0.35.
As to U9C A117C A136C, the self-cleavage was found to be 2.4.
U9C A24U A77G: the self-cleavage worked out at 2.37.
In the case of G7C U52A A77U A94G, the self-cleavage worked out at 0.44.
For the variant U9A A31G U47C, the self-cleavage is 2.3.
For U9A A67U C103A, the self-cleavage worked out at 0.1.
The same measure for U9A G55A C103A A117G U134C A138G: 0.22; for U9C A22G U26C A107G: 0; for U9C A59G U96C A141G: 0.
On to U9A A30U G32A C116U, for which the self-cleavage was determined as 1.07.
For the variant U9C A43U U96C A140G, the self-cleavage came to 0.
With U9A U26A U96A A124G A142G, the self-cleavage was determined as 0.06.
As for U9A U23A A30G, the self-cleavage was 1.48.
Regarding U9A A69G U132C, the self-cleavage stood at 1.08.
The same measure for U9A U15C U45A A77G U134A: 0.45; for G8A A50C A77G U85C: 0; for G7C A22G A42U U46C U119C: 1.02.
For the variant U9C A78G U112C, the self-cleavage is 1.13.

For the origin of these results see the RNAGym collection of RNA variant scans (doi:10.7554/elife.90254).
